Measured values: ChEMBL document CHEMBL4888484, “Replenishing the malaria drug discovery pipeline: Screening and hit evaluation of the MMV Hit Generation Library 1 (HGL1) against asexual blood stage Plasmodium falciparum ,using a nano luciferase reporter read-out” (2022)
The whole screen tested about 150,000 compounds, of which about 540 (0.36%) showed an effect of 50% or more. Some of the results follow.

These molecules were tested on Plasmodium falciparum (assay: Primary screen in NF54 nanoGlo assay, in single point, at 2uM, 72h; a lower Z score goes with more inhibition). Details: timepoint 72 hour.
Assay type: functional, Erythrocyte

Structure (SMILES)	% Inhibition	Z score
C[C@@H](CN1CCC(n2cncn2)CC1)c1cccc(Cl)c1	-8%	1.06
O=C(NCc1cccs1)N1CCN(C[C@H](O)C2CC2)CC1	5%	-1.03
CCn1ccc(C(=O)N2CC[C@H](OCc3ccccc3)C2)n1	-11%	1.24
COc1ccc(N2CCN(C(=O)c3cnns3)CC2)nc1	-6%	0.9
Cn1cc([C@@H]2CCCN2Cc2cnn(-c3ccccc3)n2)cn1	-1%	0.18
Cc1ccc(NC(=O)N2C3C=CCC2CC3)cc1C (configuration not stated)	10%	-1.83
COc1ccc(CNC(=O)C[C@@H]2Oc3ccc(Cl)cc3NC2=O)cc1	-12%	1.47
C[C@@H](CNC(=O)C(=O)Nc1cccc(C#N)c1)CN1CCN(C)CC1	-7%	0.63
COCCc1noc(-c2nc(-c3ccc4c(c3)OCO4)no2)n1	-7%	1.19
COc1ccccc1CCC(=O)N1C[C@H]2CC[C@@H](C1)N(CC1CC1)C2=O	0%	-0.06
CCN(C(=O)c1nn(C)c2ccc(C)cc12)[C@H]1COC[C@@H]1O	5%	-1
CC[C@H](C)S(=O)(=O)Nc1cccc(Cl)c1	-6%	0.71
CC[C@@H](c1cccc(OC)c1)N(C)CCn1ccnc1	-5%	0.8
Cc1ccc(NC(=O)Cn2c(C)nc3c(c2=O)CN(Cc2cccc(C)c2)CC3)cc1	-10%	1.44
Cn1cc(C(F)(F)F)nc1[C@H]1CCCN(C(=O)Cn2cnnn2)C1	-4%	0.51
COc1cc(F)cc(CN=C2NCCCCN2)c1	-5%	1.02
C[C@@H](Cc1cn(C)c2ccc(F)cc12)Nc1ncnc2c1ncn2C	-4%	0.69
CCO[C@H]1CN(Cc2ccc(OC)c(Cn3cccn3)c2)C[C@@H]1O	7%	-1.27
F[C@@]1(c2nc(-c3ccccc3)no2)CCCN(CC2CCCCC2)C1	-9%	1.16
CNC(=O)C1CN(C(=O)CCC(C)OC)CCO1 (configuration not stated)	7%	-0.85
Cc1ncccc1-c1nc(-c2cccc(-n3c(C)c[nH]c3=O)c2)no1	-1%	0.2

Structure (SMILES)	% Inhibition	Z score
CCN(CCCC(=O)O)[C@@H](C)c1cccc(O)c1	-3%	0.37
CCOc1ccc(NC(=O)N(C)c2c(C)noc2C)cn1	7%	-1.2
Cc1ccc(-n2cccn2)c(CN2CCC(CCC(=O)N3CCCC3)CC2)c1	-3%	0.54
CO[C@@]1(C(F)(F)F)CCCN(Cc2cc(=O)n3nc(N)[nH]c3n2)C1	-14%	1.53
CNc1nn(CC(=O)NCc2ccccc2Cl)c(N)c1-c1nc(-c2ccc(Cl)cc2)no1	2%	-0.24
CC1(C#N)CCCN(CC(O)CN2CCCC(C)(C#N)C2)C1 (configuration not stated)	2%	-0.26
Cn1cc(C(=O)NCC2CCN(C(=O)c3ccc(-c4nc(C5CC5)n[nH]4)cc3)CC2)cn1	-15%	2.36
CCc1nn(C)c(Cl)c1CN1CCC[C@H]1c1nccs1	-9%	1.04
Fc1cc(CNc2nncc(-c3ccc4c(c3)OCO4)n2)cc(C(F)(F)F)c1	3%	-0.6
Cc1ccc(-n2ncc3c(=O)n(CC(=O)N4CCCc5ccccc54)cnc32)c(C)c1	10%	-1.34
CCN(CCCCO)C(=O)Nc1ccc(F)c(C)c1	-13%	1.95
CCN(Cc1nc(C)no1)C(=O)Nc1cc(-c2nnn(C)n2)ccc1C	0%	0.09
CCOC(=O)[C@H]1CCCN(Cn2nc(Cc3ccc(OC)cc3)oc2=S)C1	-5%	0.69
CC1CN(C(=O)Cn2cc(C3CC3)nn2)CC(C)N1 (configuration not stated)	4%	-0.73
Cc1nc(C)c(CN2CCC[C@H](C(=O)Nc3ccc(-c4ccco4)cc3)C2)nc1C	2%	-0.39
Cc1noc(C)c1CN(C)C(=O)[C@H](CC(C)C)NS(C)(=O)=O	-13%	1.99
Cc1cc(C(=O)NCc2cccnc2Oc2ccc(F)c(F)c2)nc(N)n1	-12%	1.36
COc1nc(C)cc(N2CCN(c3ccc(C(=O)O)cc3)C[C@@H]2C)n1	-3%	0.44
Cc1nocc1NC(=O)NC[C@](C)(O)c1cccc(F)c1	-6%	0.9
C[C@@H](C1CCN(C(=O)c2ccc(-c3ccco3)cc2)CC1)N1CCN(C)CC1	3%	-0.59
